Experimental data from paper PMC5515408.
The list shows a part of the results. At the low end of the ranking, values are background and their order means little.

target: MAX:MAX (p21) (UniProt P61244-2); test: protein-binding microarray (anti-MAX antibody); settings: PBM: 15 mM Tris-HCl pH 7.5, 100 mM KCl, 0.075% NP40, 7.5 mM beta-mercaptoethanol, 375 ng/ul BSA, 8 ng/ul poly(dA-dT):(dA-dT), 550 ng complex, 60 min, room …; high values mean tight binding; double strand, one strand shown; sequences stand for … in CCGGC…TTAATAGCTAAGATTACTATATCGACG

Sequence	binding signal (log2 normalized fluorescence)
TGAGACGGTGTA	-0.88
TGACGACAGGTA	-0.411
TGACGTGTGGTA	1.73
TGATGGTCGGTA	0.134
TGAGCGAGCGTA	-0.539
TGAAGTGGAGTA	-0.697
TGAGCCATGGTA	0.345
TGAGTGCACGTA	0.795
TGAGTATTGGTA	-0.979
GGGCACGTGGGA	3.48
TGAGCACCAGTA	0.0594
TGACAGACTGTA	-0.0269
TGACCGGACGTA	-0.306
TGACGGACCGTA	-0.471
TGATGCAAAGTA	-0.291
TGAAACATGGTA	1.55
TGAGAGAAAGTA	-1.15
TGACAACTAGTA	-0.327
TGACAGATGTTA	1.11
TGAGACTAAGTA	-0.885
TGAAATGGAGTA	-0.309
AGACACGCGGTC	3.2
TGATTAACTGTA	-0.965
TGAGCGGGTGTA	0.021
TGACAATAAGTA	-0.342

Sequence	binding signal (log2 normalized fluorescence)
TGAGCTTCCGTA	-1.15
TGAAGCGCCGTA	-0.344
TGAAGGTTAGTA	-0.583
TGAATGGATGTA	0.312
TGAGCTTACGTA	-0.904
TGGCACGGGGTA	2.89
TGAGGGCAAGTA	-0.359
TGACCAAAGGTA	-0.321
TGAACGCTCGTA	-0.302
TGATGGTTAGTA	-0.0548
TGACACACAGTA	0.891
TGAGGTGCAGTA	-0.241
TGATCACTTGTA	-0.295
TGACACAGGGTA	0.747
TGACACGTCGTT	1.92
TGATTTCTTGTA	-1.29
TGACGGCGCGTA	0.838
TGAATTTTGGTA	-1.47
TGACTGCTCGTA	-0.19
TTCTACGAAGGA	-1.2
TGTCACCTGGTC	2.62
TGAGAAAAAGTA	-1.26
TACAGTCATGGA	0.645
TGTCTCGTGGTA	3.18
TGACTTATTGTA	-0.685

Sequence	binding signal (log2 normalized fluorescence)
TGAGATCCCGTA	-1.12
TGAGCCCCAGTA	-0.996
TGACGTAAGGTA	0.0183
TGAGTGGCAGTA	0.141
TGAGCATTGGTA	0.347
TCTCACGTGGTC	3.06
TGAAGTGCTGTA	0.0803
TGAGTCGTGGTA	0.516
TGAAAATTCGTA	-1.04
TGACACCTGTTA	2.39
TGACTTACGGTA	-0.375
TGAAGCCGAGTA	-1.17
TGAAACGTGGTC	3.11
TGATGTGTGGTA	0.648
TCATACGTGGTA	1.88
TGAGGGAGCGTA	-0.434
TGAGCCCAAGTA	-1.04
TGATTGCTGGTA	-0.488
TGACGGACGGTA	-0.374
TGATCGTCTGTA	-0.526
TGACTCCCCGTA	-0.408
TGATTTGGAGTA	-1.23
TGAGCTCCAGTA	-0.971
TGATACGTTGTA	-0.424
TGATATAATGTA	-0.664

Sequence	binding signal (log2 normalized fluorescence)
TGACCTCGTGTA	3.27
TGATACTCGGTA	-0.83
TGATCATCGGTA	-0.564
TGAATGATCGTA	0.0685
TGAAGACATGTA	0.506
TGAAGTACAGTA	-0.401
CAACACGTTGTA	3.07
TGATCCGGCGTA	-1
TGACACGTGCAT	2.85
TGATCTCCTGTA	-0.703
TGAACATCCGTA	-0.276
TGAGTCTAGGTA	-1.11
TGAAGCGAAGTA	-0.471
TGACACGTAGGA	1.2
TGAGACCCAGTA	-0.803
TGAACGGGAGTA	-0.832
TGCCACTTGGTG	0.429
TGATACAGGGTA	-0.572
TGATGATAGGTA	-0.382
TCCCACTTGGTA	0.301
TGAACGTCCGTA	-0.275
TGAGTAGATGTA	-0.95
TGACTCTGTGTA	-0.824
TGACTATTCGTA	-0.877
TGCCACGTGCGA	3.47

Sequence	binding signal (log2 normalized fluorescence)
TGACACGTCAGA	0.975
TGAACCTTTGTA	-0.735
TGACCGAAAGTA	-0.356
TGGCACGTGGCA	3.03
TGAAGATGAGTA	-0.347
GTGACGATCAGC	2.36
TGACCAAATGTA	-0.188
TGAGGAAATGTA	-0.626
TGATCCCCGGTA	-0.987
TGAAACGCCGTA	0.0516
TGAGCTATAGTA	-1.09
TGACGGCAAGTA	-0.0997
TGACACGAATTA	0.693
TGATAACAGGTA	-0.565
TGAGCACTCGTA	-0.121
TCACACGTGTTA	3.29
TGACGGTTCGTA	-0.498
TATCACCTGGTA	2.25
TGAGACGTAATA	-0.894
TGTCACGTGTTC	3.22
TGATACGAGGTC	-0.219
TGAGACTATGTA	-0.713
TGAAGGAGTGTA	-0.165
TGGCACTGGGTA	-0.146
TGACCGGTGGTA	0.694

Sequence	binding signal (log2 normalized fluorescence)
TGAAAGACAGTA	-0.553
TGATTCCGTGTA	-0.11
TGACACTTCGTA	-0.198
TCACACGTTTTA	3.25
TGACTGGTCGTA	-0.108
TGACCTGCAGTA	0.114
TGACACGTGTCC	3.16
TGACATGATGTA	1.46
TGACAAAAAGTA	-0.762
CGGCACGTGGTG	3.21
TGACAGGAGGTA	0.803
TGAGATTGCGTA	-0.755
TGAGCTTAAGTA	-1.07
TGACTTATGGTA	0.327
TGATGGAATGTA	0.0342
TGACTGCCGGTA	-0.407
TGAAGACGAGTA	-0.411
TGAGTGACGGTA	-0.385
TGTCACGAGGTA	3.25
TGATTGGACGTA	-0.887
TGAACGCGCGTA	1.01
TGAAATTCCGTA	-1.06
TGAGCTGGTGTA	-0.463
TGAGCTAATGTA	-0.869
TGATGATAAGTA	-0.382

Sequence	binding signal (log2 normalized fluorescence)
TGATGCCGAGTA	-0.628
TGAGATATTGTA	-1.18
TGACCAGTCGTA	-0.667
TGAACTGACGTA	-0.386
TGACAGGAAGTA	-0.344
TGATTGTGCGTA	-0.0131
TGAATTCCTGTA	-0.746
TGACGTCACGTA	0.494
TGAGGTCTTGTA	-0.72
TGAAGGATAGTA	-0.814
TGTCACCCGGTA	0.369
TGATGAAAGGTA	-0.455
TGATACGAGGGA	-0.436
ATAATGCGCTTA	1.96
TGAGATAAGGTA	-0.768
AGATACGCGGTA	-0.065
TGAGCTCTTGTA	-1.26
TGAAGCTGTGTA	-0.651
TGTTGCGTGGTA	2.18
TGAACTGCAGTA	-0.412
TGACGAGGCGTA	-0.0721
TGACATAAAGTA	-0.158
TGACACACTGTA	1.41
TGACCACGGGTA	2.11
TGAAAAACTGTA	-0.789

Sequence	binding signal (log2 normalized fluorescence)
TGAACTTGTGTA	0.39
TGATCAAAAGTA	-0.852
TGACGGGAGGTA	-0.124
TGAGCCTGGGTA	-0.402
TGAGTGGGGGTA	1.66
TGATTGCGTGTA	0.971
TGATATGAGGTA	-0.61
TGTCATGTTGTA	1.81
TGAGCACTAGTA	-0.35
ATAAAATTCAGC	-0.248
TGAGCAAGTGTA	0.167
GATGCGCGACCA	0.871
TGAAAGTCAGTA	-0.325
TGAACCTGCGTA	0.0407
TGACGAATGGTA	-0.0333
TGATCGCGCGTA	0.556
TGAGCAACGGTA	-0.288
TGACACTTTGTA	-0.0444
TGAACGACCGTA	-0.159
TGACACGTGAAG	3.15
TGATTCGGGGTA	-0.577
TGAGTACTAGTA	-0.902
AGACATGGGGTA	2.83
TGACACGTGAGG	3.37
TGAATGCATGTA	1.7

Sequence	binding signal (log2 normalized fluorescence)
TGAGAGTAAGTA	-0.97
TGAATGCAAGTA	0.000124
TGATGCCTAGTA	-0.326
TGAAGTAGTGTA	-0.591
TGACACCCCGTA	0.42
AACCACGTGGTA	3.15
TGACCTTCGGTA	-0.742
TGATGTCGTGTA	0.411
TGAGTCATAGTA	-0.754
TGAGGTTCTGTA	-0.664
TGAATATTAGTA	-0.974
TGATCGAAAGTA	-1.03
TGACCGGCAGTA	-0.396
TGAGGAACTGTA	-0.9
TGAATCCCCGTA	-0.792
TGAGCCAGTGTA	-0.769
TGATGCAGCGTA	-0.0989
TGATATCACGTA	0.35
TGAGTCCCTGTA	-0.756
TAGCACGTGGTA	3.44
TGAGGGGCTGTA	0.788
TGACCCTGCGTA	-0.145
TGAATGAGCGTA	-0.36
TGATTACTTGTA	-0.744
TGACACGTAGTG	1.44

Sequence	binding signal (log2 normalized fluorescence)
TGACCCGGCGTA	-0.0807
TGAATGCGGGTA	0.201
TAACTCGTGGTA	3.08
TGATACGCGGTC	-0.432
TGATCCATGGTA	0.313
AGAAATCTTGTT	-0.503
TGAGTCCCAGTA	-1.17
TGACACGTATAA	0.952
TGAGGCCTAGTA	-1.08
TGAAGCTCAGTA	-0.829
TGATGCTCAGTA	-0.23
TGAAACGATGTA	-0.0528
TGAGAGTCAGTA	-0.569
TGACACGTCCAA	1.3
TGATCGCCGGTA	-0.623
TGACACGCTGTA	2.96
CGTTACCCTGTG	-0.0502
TGACGTCTAGTA	-0.552
CGACCCGTGGTT	2.34
TGAAAAGCAGTA	-0.672
TGATCAAGGGTA	-0.724
TGAAATCTAGTA	-1.09
TGAAATCTCGTA	-0.873
TGACACGTACGA	1.13
TGAAGAGTGGTA	0.0783

Sequence	binding signal (log2 normalized fluorescence)
TGATTCGCGGTA	-1.04
TGACCTCCCGTA	-0.203
TGATACTGGGTA	-0.4
TGACTGCACGTA	0.646
TGAAATCGAGTA	-0.775
TGAAATTGAGTA	-1.08
TGATTAATAGTA	-1.05
TGATAGCACGTA	0.432
TGACGCAACGTA	0.133
TGACAACCCGTA	0.226
TGAGATACAGTA	-0.868
TGACATTTTGTA	-0.64
TGACGCTCAGTA	-0.512
TGAGTCTATGTA	-0.843
TGATGCATTGTA	0.5
TGACTAAGGGTA	-0.839
TGAACACCCGTA	0.108
TGACACCTTGAA	0.466
TGACGCCATGTA	0.577
CCGCACGTGGTA	3.03
TAGAACGTGGTA	3.26
TGTCATGTGGTA	3.19
TGATCCAACGTA	-0.546
TGAGTGCTGGTA	0.17
TTACCCGTGGTA	2.53
